From paper PMC6949220
Read-outs that look alike come from different tables or passages of the source. No constants are given. Whether binding was seen depends on the method and setting. Binding seen in cells or lysates may run through a third protein. Some entries that bind do so weakly or less than the wild type. For part of these data: Sequences can lack the tags named with a protein.

Amino acid sequences for entries named in this document (tags omitted). Residues count along the entry.
UniProt P40763: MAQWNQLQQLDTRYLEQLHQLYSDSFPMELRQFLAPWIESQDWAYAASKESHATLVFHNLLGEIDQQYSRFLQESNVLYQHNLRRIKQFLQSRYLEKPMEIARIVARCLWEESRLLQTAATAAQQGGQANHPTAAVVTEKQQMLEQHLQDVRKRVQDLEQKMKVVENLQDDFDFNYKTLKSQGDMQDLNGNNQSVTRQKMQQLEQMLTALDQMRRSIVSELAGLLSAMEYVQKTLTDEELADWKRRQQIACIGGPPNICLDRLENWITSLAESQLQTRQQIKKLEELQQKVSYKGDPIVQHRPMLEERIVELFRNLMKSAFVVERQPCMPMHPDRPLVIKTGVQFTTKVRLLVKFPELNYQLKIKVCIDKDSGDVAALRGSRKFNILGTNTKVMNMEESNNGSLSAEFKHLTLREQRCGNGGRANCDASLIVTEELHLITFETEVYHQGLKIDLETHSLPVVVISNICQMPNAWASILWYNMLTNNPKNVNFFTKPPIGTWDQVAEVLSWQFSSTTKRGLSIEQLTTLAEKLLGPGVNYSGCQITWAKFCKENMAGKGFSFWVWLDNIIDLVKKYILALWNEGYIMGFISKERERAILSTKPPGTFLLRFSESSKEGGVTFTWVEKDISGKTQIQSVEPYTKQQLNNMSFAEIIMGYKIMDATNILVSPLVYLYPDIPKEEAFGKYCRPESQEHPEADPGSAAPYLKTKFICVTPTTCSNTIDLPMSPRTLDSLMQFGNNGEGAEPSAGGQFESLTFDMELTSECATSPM
UniProt P28827, residues 21-1452: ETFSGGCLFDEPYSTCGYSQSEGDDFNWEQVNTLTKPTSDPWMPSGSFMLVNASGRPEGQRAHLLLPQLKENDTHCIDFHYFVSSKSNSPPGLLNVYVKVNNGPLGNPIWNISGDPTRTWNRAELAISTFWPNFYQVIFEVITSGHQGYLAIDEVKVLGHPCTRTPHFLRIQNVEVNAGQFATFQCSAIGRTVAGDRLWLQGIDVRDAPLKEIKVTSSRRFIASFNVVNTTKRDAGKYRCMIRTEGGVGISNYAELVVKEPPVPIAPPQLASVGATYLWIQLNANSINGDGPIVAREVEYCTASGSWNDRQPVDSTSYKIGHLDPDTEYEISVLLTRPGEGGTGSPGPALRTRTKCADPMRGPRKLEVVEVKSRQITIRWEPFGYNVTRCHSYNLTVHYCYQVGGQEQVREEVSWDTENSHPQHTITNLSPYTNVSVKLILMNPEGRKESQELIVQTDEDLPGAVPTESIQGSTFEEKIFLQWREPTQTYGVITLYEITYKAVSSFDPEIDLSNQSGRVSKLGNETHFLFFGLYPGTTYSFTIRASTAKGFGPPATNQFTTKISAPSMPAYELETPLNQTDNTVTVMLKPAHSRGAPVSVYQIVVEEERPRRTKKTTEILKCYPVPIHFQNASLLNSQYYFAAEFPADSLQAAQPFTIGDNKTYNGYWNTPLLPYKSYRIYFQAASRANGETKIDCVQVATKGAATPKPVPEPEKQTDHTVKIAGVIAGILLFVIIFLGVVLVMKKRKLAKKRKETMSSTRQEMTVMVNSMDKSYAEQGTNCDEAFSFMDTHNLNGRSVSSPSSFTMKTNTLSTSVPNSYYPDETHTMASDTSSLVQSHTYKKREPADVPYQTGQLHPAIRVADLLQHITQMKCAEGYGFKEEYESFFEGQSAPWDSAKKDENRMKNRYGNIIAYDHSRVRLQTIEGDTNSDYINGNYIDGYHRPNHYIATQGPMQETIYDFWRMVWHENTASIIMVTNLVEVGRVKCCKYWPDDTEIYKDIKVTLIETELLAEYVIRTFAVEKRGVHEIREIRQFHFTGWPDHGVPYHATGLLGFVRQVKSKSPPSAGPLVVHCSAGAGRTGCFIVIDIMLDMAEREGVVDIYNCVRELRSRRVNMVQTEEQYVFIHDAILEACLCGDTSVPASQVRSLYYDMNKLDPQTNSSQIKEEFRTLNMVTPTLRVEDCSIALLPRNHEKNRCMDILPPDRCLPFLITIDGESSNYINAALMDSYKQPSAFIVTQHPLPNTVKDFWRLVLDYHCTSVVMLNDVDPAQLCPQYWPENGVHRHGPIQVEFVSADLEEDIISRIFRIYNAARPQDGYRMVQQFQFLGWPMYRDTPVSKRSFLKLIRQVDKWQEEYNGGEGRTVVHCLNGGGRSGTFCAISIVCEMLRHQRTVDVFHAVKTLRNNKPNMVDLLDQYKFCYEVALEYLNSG

Assays:
[1] = molecular target: endogenous STAT3 (human (endogenous in NCI-H1703)) (UniProt P40763); assay: co-IP; endogenous proteins; lysates incubated with anti-STAT3 or anti-DDIAS antibody; cells treated with IL-6 (PTPRM/STAT3, also after DDIAS knock-down); NCI-H1703 for DDIAS/STAT3
[2] = molecular target: HA-STAT3 wild type (signal transducer and activator of transcription 3) (UniProt P40763); assay: co-IP; HEK293T co-transfected with FLAG-DDIAS and/or Myc-PTPRM and HA-STAT3; precipitated with anti-HA antibody
[3] = molecular target: HA-STAT3 wild type (signal transducer and activator of transcription 3) (UniProt P40763); assay: co-IP; tagged proteins co-transfected (HEK293T where stated); lysates precipitated with anti-HA, anti-Flag or anti-Myc, immunoblot
[4] = molecular target: HA-STAT3 wild type (signal transducer and activator of transcription 3) (UniProt P40763); assay: as above; remark: listed apart in the source
[5] = molecular target: Myc-DDK-tagged PTPRM (protein tyrosine phosphatase receptor mu) (UniProt P28827); assay: as above
[6] = molecular target: endogenous STAT3 (human (endogenous in NCI-H1703)) (UniProt P40763); assay: co-IP; endogenous proteins; lysates incubated with anti-STAT3 or anti-DDIAS antibody; cells treated with IL-6 (PTPRM/STAT3, also after DDIAS knock-down); NCI-H1703 for DDIAS/STAT3; remark: listed apart in the source

Question: For “endogenous PTPRM (from UniProt P28827 21-1452) (receptor)”, which binding [1] is on record?
Answer: Its binding is “binds”.

Question: For “Myc-DDK-tagged PTPRM (protein tyrosine phosphatase receptor mu) (from UniProt P28827 21-1452)”, which binding [2] is on record?
Answer: Its binding is “binds”.

Question: And the binding [3]?
Answer: Its binding is “binds”.

B1: Flag-DDIAS (DNA damage-induced apoptosis suppressor) (protein, UniProt Q8IXT1 1-998)
chain: MNRRRKFLLASVLALQNSSFIYPSCQKCFSRIILVSKRSNCPKCGSTGESGNANYRYKLSLKVAESNKLFVITVFGSCLDTFFGLTATGLHRYIQDPNKIPETLDNDTTQNLLTKAVETCFVGQSFIFGVTNFENQPGQGSDASNFLQQCSDHKRKAKALVACQIVLPDPGIAGFTVIDYFHQLLQTFNFRKLQCDSQAPNNHLLALDHSNSDLSSIYTSDSTSDFFKSCSKDTFSKFWQPSLEFTCIVSQLTDNDDFSASEQSKAFGTLQQNRKSISIAEATGSSSCHDPIQDSWSLVSYMDKKSTAEKLGKELGLQAKELSAVHSSHHEIGVNDSNLFSLEMREPLESSNTKSFHSAVEIKNRSQHELPCFQHHGIDTPTSLQKRSACCPPSLLRLEETASSSQDGDPQIWDDLPFSESLNKFLAVLESEIAVTQADVSSRKHHVDNDIDKFHADHSRLSVTPQRTTGALHTPPIALRSSQVIVKANCSKDDFLFNCKGNLSPSVEKESQPDNKVEAVSVNHNGRDMSEYFLPNPYLSALSSSSKDLETIVTLKKTIRISPHRESDHSSLNNKYLNGCGEISVSEMNEKLTTLCYRKYNDVSDLCKLENKQYCRWSKNQDDSFTICRKLTYPLETLCNSPNRSTNTLKEMPWGHINNNVTQSYSIGYEGSYDASADLFDDIAKEMDIATEITKKSQDILLKWGTSLAESHPSESDFSLRSLSEDFIQPSQKLSLQSLSDSRHSRTCSPTPHFQSDSEYNFENSQDFVPCSQSTPISGFHQTRIHGINRAFKKPVFYSDLDGNYEKIRIFPENDKQQASPSCPKNIKTPSQKIRSPIVSGVSQPDVFNHYPFAECHETDSDEWVPPTTQKIFPSDMLGFQGIGLGKCLAAYHFPDQQELPRKKLKHIRQGTNKGLIKKKLKNMLAAVVTKKKTHKYNCKSSGWISKCPDIQVLAAPQLHPILGPDSCSEVKCCLPFSEKGPPSVCETRSAWSPELFS
Question: For B1, which binding [4] is on record?
Answer: Its binding is “binds”.

Question: What about the binding [5] of the same molecule?
Answer: Its binding is “no binding”.

B2: endogenous DDIAS (protein, UniProt Q8IXT1 1-998)
chain: MNRRRKFLLASVLALQNSSFIYPSCQKCFSRIILVSKRSNCPKCGSTGESGNANYRYKLSLKVAESNKLFVITVFGSCLDTFFGLTATGLHRYIQDPNKIPETLDNDTTQNLLTKAVETCFVGQSFIFGVTNFENQPGQGSDASNFLQQCSDHKRKAKALVACQIVLPDPGIAGFTVIDYFHQLLQTFNFRKLQCDSQAPNNHLLALDHSNSDLSSIYTSDSTSDFFKSCSKDTFSKFWQPSLEFTCIVSQLTDNDDFSASEQSKAFGTLQQNRKSISIAEATGSSSCHDPIQDSWSLVSYMDKKSTAEKLGKELGLQAKELSAVHSSHHEIGVNDSNLFSLEMREPLESSNTKSFHSAVEIKNRSQHELPCFQHHGIDTPTSLQKRSACCPPSLLRLEETASSSQDGDPQIWDDLPFSESLNKFLAVLESEIAVTQADVSSRKHHVDNDIDKFHADHSRLSVTPQRTTGALHTPPIALRSSQVIVKANCSKDDFLFNCKGNLSPSVEKESQPDNKVEAVSVNHNGRDMSEYFLPNPYLSALSSSSKDLETIVTLKKTIRISPHRESDHSSLNNKYLNGCGEISVSEMNEKLTTLCYRKYNDVSDLCKLENKQYCRWSKNQDDSFTICRKLTYPLETLCNSPNRSTNTLKEMPWGHINNNVTQSYSIGYEGSYDASADLFDDIAKEMDIATEITKKSQDILLKWGTSLAESHPSESDFSLRSLSEDFIQPSQKLSLQSLSDSRHSRTCSPTPHFQSDSEYNFENSQDFVPCSQSTPISGFHQTRIHGINRAFKKPVFYSDLDGNYEKIRIFPENDKQQASPSCPKNIKTPSQKIRSPIVSGVSQPDVFNHYPFAECHETDSDEWVPPTTQKIFPSDMLGFQGIGLGKCLAAYHFPDQQELPRKKLKHIRQGTNKGLIKKKLKNMLAAVVTKKKTHKYNCKSSGWISKCPDIQVLAAPQLHPILGPDSCSEVKCCLPFSEKGPPSVCETRSAWSPELFS
Question: B2 was tested. Which binding [6] did it give?
Answer: The binding was “binds”.
